Measured values as given in patent US20040037830A1 (Genentech, published 2004).

Biological target: T1, human fMLP receptor (cDNA of Boulay et al. in vector pRK5) (human, UniProt P21462 1-350)
T1 construct: whole, on cells
T1 sequence (looked up): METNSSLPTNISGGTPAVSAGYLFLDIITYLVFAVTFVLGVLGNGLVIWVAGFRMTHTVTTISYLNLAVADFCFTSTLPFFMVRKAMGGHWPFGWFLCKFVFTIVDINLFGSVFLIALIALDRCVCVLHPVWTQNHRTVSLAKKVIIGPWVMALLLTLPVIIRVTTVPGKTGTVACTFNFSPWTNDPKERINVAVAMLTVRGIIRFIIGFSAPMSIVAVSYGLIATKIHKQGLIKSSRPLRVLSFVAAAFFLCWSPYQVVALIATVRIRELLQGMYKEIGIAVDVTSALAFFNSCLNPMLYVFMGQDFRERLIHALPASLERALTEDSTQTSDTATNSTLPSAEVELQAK
Assay: radioligand binding to transfected cells

B1: human 72 amino acid IL-8 (interleukin-8), recombinant, made in E. coli (ligand)
chain: not shown
notes: mature; no residue limits are printed; also called rHuIL-8
- binding result: no binding
